Test results as given in PubChem BioAssay AID485297 (National Center for Advancing Translational Sciences (NCATS), 2010).
In all, about 320,000 compounds went through this assay and about 9,100 (2.8%) were called active. Inconclusive results, whose numbers are uncertain, are shown with a selection of clear calls. Calls follow the shape of the dose curve; as a rule, active = well fitted activation curve with a large enough effect; inconclusive = small, poorly fitted or top-dose-only effect; inactive = no such curve, though single readings can be large or run the other way. No potency is given beside an inconclusive call; the fits are too rough.
Potency is read from the fitted curve at half-maximal effect; tags tell the direction and shape of the fitted curve.

Test: qHTS Assay for Rab9 Promoter Activators; also: nearly all actives have a fitted effect of over 60% in size; as to activation, negative = inhibition: % of control where 0% means no effect
Details: Huh7 Rab9 promoter-luciferase reporter, luminescence, 24 h; series mostly up to 9.22 µM; activation, negative = inhibition: at the top concentration
Procedure, shortened: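 Stable Rab9-luc Huh7, 1500 cells/well, 2 h settle; cmpd in DMSO, 24 h, 37 °C/5% CO2; luciferase reagent 10 min RT; luminescence.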
For `O=S(=O)(c1cc(Cl)ccc1Cl)n1cccn1`, the “activation, negative = inhibition” value was inactive: 2.93%. With `Cc1ccc2c(COC(=O)c3ccc(C)c(C)c3)cc(=O)oc2c1` the Potency was inconclusive [activator, partial curve]. For `COc1ccc(C2CC(c3ccc(OC)c(OC)c3)=NN2S(C)(=O)=O)cc1` (centres undefined), the Potency was active: 0.501 µM. In the case of `O=C(Nc1ccc2[nH]ncc2c1)c1ccccc1Br`, the Potency was inconclusive [activator, partial curve]. With `CCCCCC(=O)Nc1cccc(C2=NOC3(C2)C[C@@H](C(N)=O)N(C(=O)c2cc([N+](=O)[O-])cc([N+](=O)[O-])c2)C3)c1` (some centres undefined) the “activation, negative = inhibition” value was inactive: 0.0026%. For `Cc1ccc(NC(=O)c2csc(-c3ccccc3)c2C)cc1`, the Potency was active: 0.316 µM. For `O=C(Nc1cccc2ccccc12)c1ccccc1`, the Potency was active: 3.55 µM. With `COc1ccc(N2CCN(C(=S)Nc3ccccc3OC)CC2)cc1` the “activation, negative = inhibition” value was inactive: -1.54%. In the case of `COc1cccc(C2NC(=O)c3ccccc3O2)c1OC` (centres undefined), the “activation, negative = inhibition” value was inactive: 8.14%. In the case of `N/C(=N\OC(=O)c1ccc(F)cc1)c1cccc([N+](=O)[O-])c1`, the Potency was inconclusive [activator, single point]. In the case of `Cc1ccc(C(=O)Nc2ccn(C)n2)cc1`, the Potency was inconclusive [activator, partial curve]. In the case of `Cc1ccccc1NC(=O)Nc1nc2ccc(S(C)(=O)=O)cc2s1`, the Potency was inconclusive [activator, partial curve]. With `CC(C)(C)c1ccc(COc2ccsc2C(=O)O)cc1` the Potency was inconclusive [activator, partial curve, poor fit]. With `CC(=O)c1ccc(-c2nnc(CCC(=O)N3CCCC(C(=O)CC(C)C)C3)o2)s1` (centres undefined) the Potency was active: 3.55 µM. In the case of `COC(=O)[C@H](Cc1ccccc1)NC(=O)NCc1ccc(C)cc1`, the “activation, negative = inhibition” value was inactive: -6.81%. In the case of `CN1C=CC=C/C1=C1/N=C(c2ccccc2)OC1=O`, the Potency was active: 3.16 µM. For `CCOC(=O)c1c(-c2ccc(OC)cc2)csc1NC(=O)CCN1C(=O)c2ccccc2C1=O`, the “activation, negative = inhibition” value was inactive: -0.489%. For `O=c1[nH][nH]c(=O)n1-c1ccccc1`, the “activation, negative = inhibition” value was inactive: 5.6%. In the case of `C/C(Cn1nc([N+](=O)[O-])cc1C)=N\NC(=O)COc1ccccc1[N+](=O)[O-]`, the “activation, negative = inhibition” value was inactive: -0.322%. In the case of `COc1ccc(NC(=O)c2ccc(C(=O)c3ccccc3)o2)cc1`, the Potency was inconclusive [activator, full curve, poor fit]. In the case of `CS(=O)(=O)N1CCc2cc(C(=O)Nc3ccccc3Br)ccc21`, the Potency was inconclusive [activator, single point]. With `Nn1c(SCC(=O)Nc2ccc(F)cc2F)nnc1C1CCCCC1` the Potency was inconclusive [activator, single point]. With `CC(=O)Nc1sc(N/N=C\c2ccccc2F)nc1-c1cccs1` the “activation, negative = inhibition” value was inactive: 14.7%. With `CC(C)c1ccc(CCNC(=O)CCNS(=O)(=O)c2ccc(Br)cc2)cc1` the Potency was inconclusive [activator, single point]. For `COc1cc(C(=O)N=c2sc3ccccc3n2C)cc(OC)c1OC`, the Potency was inconclusive [activator, single point]. In the case of `COc1cccc(OCCSc2nc(N)cc(N)n2)c1`, the Potency was inconclusive [activator, partial curve]. With `COc1ccc(Cn2nnnc2C(CC(C)C)N2CCC(C(N)=O)CC2)cc1` (centres undefined) the Potency was inconclusive [activator, single point]. For `Nc1ccc(NC(=O)Nc2ccc(N)cc2)cc1`, the Potency was inconclusive [activator, single point]. In the case of `O=C(c1ccc2c(c1)OCCO2)C1CCN(C(=O)c2ccc(F)c(F)c2)CC1`, the “activation, negative = inhibition” value was inactive: -4.08%. With `O=C(NNC(=O)C1CC2CCC1C2)c1sc2ccccc2c1Cl` (centres undefined) the Potency was inconclusive [activator, partial curve]. For `O=C(Nc1ncc(Cc2ccccc2)s1)C1COc2ccccc2O1` (centres undefined), the Potency was active: 2.82 µM. For `Cc1cc(C(=O)CSc2nnc3ccccn23)c(C)n1-c1ccccc1`, the Potency was inconclusive [activator, full curve, poor fit]. In the case of `COc1ccc(-c2nc(C#N)c(NCC3CCCO3)o2)cc1` (centres undefined), the “activation, negative = inhibition” value was inactive: 21%. In the case of `Cc1ccc(-c2nc(C#N)c(NCC3CCCO3)o2)cc1` (centres undefined), the Potency was inconclusive [activator, partial curve]. With `COc1ccc2occ(C(=O)c3ccccc3)c2c1` the Potency was inconclusive [activator, single point]. In the case of `CCOC(=O)C1CCN(C(=O)/C=C/c2cccs2)CC1`, the Potency was inconclusive [activator, partial curve]. For `Cc1ccccc1CSc1ccc(-c2ccc3c(c2)OCO3)nn1`, the Potency was inconclusive [activator, single point]. For `[O-][n+]1ccccc1SC/C=C/c1ccccc1`, the Potency was inconclusive [activator, single point]. With `CC1CCN(C(=O)c2cc3c(=O)n4ccccc4nc3s2)CC1` the Potency was inconclusive [activator, partial curve]. For `Nc1ccc2nn(-c3ccc(F)cc3)nc2c1`, the Potency was active: 1.41 µM. With `Nc1cc([N+](=O)[O-])cc2oc(-c3ccccc3)cc12` the Potency was inconclusive [activator, single point]. For `O=C1C=C(N2CCOCC2)C2(CCCCC2)O1`, the Potency was inconclusive [activator, single point]. For `C/C(=N\NC(=O)c1ccc2ccccc2c1)c1cccnc1`, the Potency was inconclusive [activator, single point]. For `CCCCOC(=O)c1ccc(N=Nc2c(C)c(C#N)c(O)[nH]c2=O)cc1`, the “activation, negative = inhibition” value was inactive: 20.5%. With `CCOC(=O)C1CCN(C(=O)c2cc3ccccc3oc2=O)CC1` the Potency was inconclusive [activator, partial curve]. For `COCCCN(C(=O)C1CCC1)c1c(N)n(Cc2ccccc2)c(=O)[nH]c1=O`, the “activation, negative = inhibition” value was inactive: 2.37%. For `O=C(Cc1ccc2c(c1)OCCO2)N1CCN(S(=O)(=O)c2ccccc2C(F)(F)F)CC1`, the “activation, negative = inhibition” value was inactive: 0.807%. In the case of `C/C(CC(=O)Nc1ccccn1)=N\NC(=O)c1ccncc1`, the “activation, negative = inhibition” value was inactive: 1.97%. With `Cc1ccc(-c2nc3ccccc3[nH]c2=O)cc1` the Potency was inconclusive [activator, single point].
